To fix the notation:
B1: GBRAP_52_6049 (protein)
chain: MREEIRRRVEEILELVKAGDEEGARALLREVFETLSDEELELFIEEFARAAREARPEDFDAVARAVELAVEEAEEAGKPEELADLFEARVYAALYEAEQR
B2: GBRAP_166_4990 (protein)
chain: SLEELKKELEEELERVLEEIREANDEEVIELLIEFGIKLEEARKEGLPLEYILELAVRAAVEAAKVTGKPNLAVGVIGEAAGLDEEELDILEKRVLERLA
B3: GBRAP_95_7073 (protein)
chain: EDDLLLLESLVEVLDTYLDLGDEEKAREAAREAAETLKKLGYPKLPESLSLEGRLLIVEEAAKTYDEETTRKITEAILKSVKDEEDKEKIRKRLEELLKK
B4: GBRAP_80_6840 (protein)
chain: NEEKFKAAAAALRAATPAEMQPFIDALEEAAKAGASKERITRALEAMLALVKADPEKAKALAEEGLKDLKEALATGDVDEINATIADIEGDALVELEELE
B5: GBRAP_11_2843 (protein)
chain: NLEALKELQEKAEEIAKELAKLIASGNPTQEELDALKKKVEELLKEVKKHASKSAQKLAEIALEEVNEAIANPEKQKEHLEHALAAVRVLAGELLLEIEE
B6: GBRAP_9_7178 (protein)
chain: EQAKKKAILKTAKEEFELALEVVPEEKKPEVKKLLEEVLAELEKLVADPNTTLEELLEALEKLVEKLIKELKKILDKETYNQVEAVLGTAILEAEEIVEE
B7: GBRAP_52_6116 (protein)
chain: MRERLRAFVEEQLALVRAGREEEARARIRELVASIDEEELRILADALAELAREAAPEDLDAVWRLAELIAEAMEEAGKPEELVDYLLSKTAAALYEREQA
B8: GBRAP_128_3449 (protein)
chain: SVEEAAEYARETMEKMKESDLETARELAKELAEWLLTLSDEELAAAVEEIERLAPELSAEKLDILADVFREALPRFTPEQANLVADAEVELLNEAEEKEE
B9: GBRAP_160_4545 (protein)
chain: SEKVEEAIEDIDEEAEFVKSLVGKISTDELINAVDVEVGSFIMELAELGLLTDELEEEIDEIRDETLATLKANPNASDEEKKALIDEMAEKIKEAIKKHA
B10: GBRAP_125_3046 (protein)
chain: SLEELVEALALIAKRLGLSEEEVEELAELARKHGVKGTLIALLLAEGYEELAELASKLTEEEVAEVLKELAEWLKKNPNATKEEVIKKLKELLEKALKKK
B11: GBRAP_160_4240 (protein)
chain: SSSIEEIKEEILEEMELMVESLLEVDPSQWPAIARAYAGDIVQIVIENPEASDEMEEAVAEKADALVARLVAAKDASPEEIRALAEEGAEEIIKTIEELS
B12: GBRAP_160_4196 (protein)
chain: SEKIEELIKEIKEIAEEAKEMIEGESYEERVVIVEGALGQIILLVSESPEVSDETEEKIAEIADEAIAYLRAHPDLTEEEIKKLIDETTEKIIEIIKEGA
B13: GBRAP_39_5663 (protein)
chain: EEEEENELLFSYYEALAVKYKIDEGITDEEAIEEGKKLLRELAEEHPEIKEDVEKLLKKVEEGDEDVGLAAYGIALEYKEGTPLEEIKEHIKSLLKYVDK
B14: GBRAP_160_4449 (protein)
chain: MKTKEELIKLVEETKKETIELIKGESHEERVVIVEGEFGSLLMEFASDERVSDEMEDKIAEVVDELVKTLKENPDLSLEEIEALIEEAAEKIKEIIEEEL
B15: GBRAP_11_2902 (protein)
chain: KLEKLKELAELLKKAAELLKELLKKGVDDEELLKKALEVAKKALELAKEVLDESDVELAEYAVELLEKAKKDPENAEQYVKEALAIVRVLEGQVLLEIEE
B16: GBRAP_160_4829 (protein)
chain: EESKEKLKKLIEEEAEEAKRLIVGQTAEERAAIVAVEFGRVILELSELEEVSDELEDKVAEIADEAVETILANPDLTEEEVRALIEEAAEKIKEIIEKEL
B17: GBRAP_139_3725 (protein)
chain: MKKEEAIKKAKELVKKYKDDLEKLAKELAKLISSVDSETALEIARAAAEELKDYSWEKWEELIELLSKELKELGIDEDDILAIEGEFEAVMAKHLIEKEA
B18: GBRAP_11_2839 (protein)
chain: KKEELKKLAEKAEKIAKELKKLIASGNPTKEELEKLLKEAKKFLEETEKSGDKAATKIAKILVEDIEEAIANPETQKEHLERALAAAEVLAGQYLLELEE
B19: GBRAP_184_5108 (protein)
chain: KTLNVVVEADTLEEARAKLRAAVAEAAAAGANLNVLLDLKGFSGEELVDLVREFGRAAREAGVPRVTLGITNDLDEETVDKLIKVADELGINLVLAIPDK

Over roughly 4,500 sequences, “median log2 fold change of GCK-ALFA target abundance (FLAG IP / Myc IP barcode read proportion)” has its median near 0.078; the lowest 2% begin near -0.6. The list shows a part of the results.

The assay deals with GABARAP, O95166. Description: median log2 fold change of GCK-ALFA target abundance (FLAG IP / Myc IP barcode read proportion) (log2 ratio); each designed protein is fused to an ALFA-tag nanobody in HEK293 cells to bring the named protein to FLAG-tagged glucokinase (GCK); Myc marks an untargeted standard; higher = target protein stabilised (more abundant). To be noted: target protein: 3xFLAG-MCP-GCK-ALFA reporter; HEK293 landing pad (RPLP). In outline: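 An ALFA-nanobody-fused binder library was recombined into HEK293 landing-pad cells and induced with 2 μg mL^−1 doxycycline. Cells were transfected with a plasmid expressing a FLAG-tagged target and a Myc-tagged standard. After 48 h, lysates underwent anti-FLAG and anti-Myc immunoprecipitation, and circular RNA barcodes were reverse transcribed, amplified and sequenced. Target abundance is the per-binder median log2 ratio of FLAG to Myc barcode read proportions. Barcodes needed ≥10^−7 proportion in both replicates, binders ≥3 barcodes per replicate, and a 10^−6 pseudocount was added; the two replicates were pooled.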
Sequence of GABARAP, O95166 (O95166 whole entry, the tested form may be a part): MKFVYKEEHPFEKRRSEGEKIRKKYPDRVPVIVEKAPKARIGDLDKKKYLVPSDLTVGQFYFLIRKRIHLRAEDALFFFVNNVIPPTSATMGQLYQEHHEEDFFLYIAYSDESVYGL
Regarding B1, the “median log2 fold change” value worked out at 0.12.
To B2 belongs -0.01; to B3, 0.172.
To B4 belongs 0.124.
The result for B5 reads 0.0664.
For B6, the “median log2 fold change” value came out at 0.0939.
The result for B7 reads -0.0516; that for B8, -0.0934; that for B9, -0.0103.
On to B10, for which the “median log2 fold change” value is -0.324.
To B11 belongs -0.0253.
The result for B12 reads -0.144.
To B13 belongs 0.142; to B14, 0.395; to B15, -0.234.
With B16, the “median log2 fold change” value is -0.0806.
The result for B17 reads -0.506; that for B18, 0.0853.
The result for B19 reads 0.0784.

Values taken from the supplement of paper PMC12632987.
